# Assay results from the supplement of paper PMC7125110.
# ± gives the standard error. Variants at the floor of the assay are shown more often than the library holds them.
# B1: glmS ribozyme (parent)
# chain: AUAAAAGCGCCAGAACUACAGAAAUGUAGUUGACGAGGAGGAGGUUUAUCGAAUUUUCGGCGGAUGCCUCCAAA
# Experiments:
# Conditions in all cases: with glucosamine-6-phosphate
# glucosamine-6-phosphate [1] = variants of: B1; test: self-cleavage kobs at 640 uM GlcN6P; higher = faster cleavage; RNA array
# Method in brief: (§1)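 kobs was derived by fitting per-tile medians to one- or two-exponential decays after normalising signals to baseline and to non-cleaving reference variants. Those signals came from barcoded ribozyme variants transcribed in situ by E. coli RNA polymerase on sequenced MiSeq chips, followed through a hybridised Cy3 probe at 37 °C and imaged over ~14 h. Glucosamine-6-phosphate (40 μM to 10 mM) in HEPES/KCl/Mg(OAc)2 buffer was flowed in. Weighted Michaelis–Menten fits across concentrations then gave kcat and KM.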
# glucosamine-6-phosphate [2] = variants of: B1; test: self-cleavage kobs at 160 uM GlcN6P; higher = faster cleavage; RNA array
# Method in brief: as §1
# glucosamine-6-phosphate [3] = variants of: B1; test: self-cleavage kobs at 2500 uM GlcN6P; higher = faster cleavage; RNA array
# Method in brief: as §1
# glucosamine-6-phosphate [4] = variants of: B1; test: self-cleavage kobs at 10000 uM GlcN6P; higher = faster cleavage; RNA array
# Method in brief: as §1
Variant,self-cleavage kobs at 640 uM GlcN6P (glucosamine-6-phosphate [1]),self-cleavage kobs at 160 uM GlcN6P (glucosamine-6-phosphate [2]),self-cleavage kobs at 2500 uM GlcN6P (glucosamine-6-phosphate [3]),self-cleavage kobs at 10000 uM GlcN6P (glucosamine-6-phosphate [4])
AUAAAAGCGCCAGAACUACAGAAAUGUAGUUGACGAGGAGGAGGUUUAUGGAAUUUACGGCGGUUGCCUCCAAA [C50G U57A A64U],0.000127 ± 5.8e-05 s⁻¹,,,
AUAAAAGCGCCAGAACUACAGAAAUGUAGUUGACGAGGAGGAGGUUUAGCUAAUUUUCGGCGGAUGCCUCCAAA [U49G G51U],< 1e-05 s⁻¹,< 1e-05 s⁻¹,< 1e-05 s⁻¹,< 1e-05 s⁻¹
AUAAAAGCGCCAGAACUACAGAAAUGUAGUUGACGAGGAGGAGGUUUAUCAAAUUUUCGGCGCAUGACCCCAAA [G51A G63C C67A U69C],< 1e-05 s⁻¹,,,
AUAAAAGCGCCAGAACUACAGAAAUGUAGUUGACGAGGAGGAGGUUUAGCGAAUAUUCGGCGGAUGCCUCCAAA [U49G U55A],0.000213 ± 2.8e-05 s⁻¹,6.19e-05 ± 9.7e-06 s⁻¹,0.000539 ± 5.5e-05 s⁻¹,0.000891 ± 0.00013 s⁻¹
AUAAAAGCGCCAGAACUACAGAAAUGUAGUUGACGAGGAGGAGGUUUUUCGAAUUUUCGGCGGAUGCCUCGAAA [A48U C71G],4.04e-05 ± 7.5e-06 s⁻¹,,6.5e-05 ± 9.8e-06 s⁻¹,3.69e-05 ± 8e-06 s⁻¹
AUAAAAGCGCCAGAACUACAGAAAUGUAGUUGACGAGGAGGAGGUUUAUUCAAUUUUCGGCGGUUGCCUCCAAA [C50U G51C A64U],< 1e-05 s⁻¹,,< 1e-05 s⁻¹,
AUAAAAGCGCCAGAACUACAGAAAUGUAGUUGACGAGGAGGAGGUUUAACGAUUUUUCGGCAGAUGCCUCCAAA [U49A A53U G62A],< 1e-05 s⁻¹,,< 1e-05 s⁻¹,
AUAAAAGCGCCAGAACUACAGAAAUGUAGUUGACGAGGAGGAGGUUUAUUGUACUUUCGGCGGAUGCCUCCAAA [C50U A52U U54C],< 1e-05 s⁻¹,< 1e-05 s⁻¹,< 1e-05 s⁻¹,
AUAAAAGCGCCAGAACUACAGAAAUGUAGUUGACGAGGAGGAGGUUUAUCAAAUUUUCAGCGGAUGCCUCCAAA [G51A G59A],< 1e-05 s⁻¹,,,< 1e-05 s⁻¹
AUAAAAGCGCCAGAACUACAGAAAUGUAGUUGACGAGGAGGAGGUUUAACGAAUUAUUGACGGAUGUCUCCAAA [U49A U56A C58U G60A C67U],< 1e-05 s⁻¹,,,
AUAAAAGCGCCAGAACUACAGAAAUGUAGUUGACGAGGAGGAGGUUUGUCGAAAUUUCGGCGCAUGCCUCCAAA [A48G U54A G63C],< 1e-05 s⁻¹,< 1e-05 s⁻¹,< 1e-05 s⁻¹,
AUAAAAGCGCCAGAACUACAGAAAUGUAGUUGACGAGGAGGAGGUUUACCCAAUUUUCGGCGGAUGCCUCCAAA [U49C G51C],< 1e-05 s⁻¹,< 1e-05 s⁻¹,< 1e-05 s⁻¹,
AUAAAAGCGCCAGAACUACAGAAAUGUAGUUGACGAGGAGGAGGUUUAUCAAAUGGUCGGCCGAUGCCUCCAAA [G51A U55G U56G G62C],< 1e-05 s⁻¹,< 1e-05 s⁻¹,< 1e-05 s⁻¹,
AUAAAAGCGCCAGAACUACAGAAAUGUAGUUGACGAGGAGGAGGUUUAUCAAAUUUUCGGCUGAUGACUCCAAA [G51A G62U C67A],< 1e-05 s⁻¹,,< 1e-05 s⁻¹,
AUAAAAGCGCCAGAACUACAGAAAUGUAGUUGACGAGGAGGAGGUUUACCGCAUUUUCGGCGGUUGCCUCCAAA [U49C A52C A64U],< 1e-05 s⁻¹,< 1e-05 s⁻¹,< 1e-05 s⁻¹,
